Assay results published in publication PMC6919601, “Identification of Plasmodium dipeptidyl aminopeptidase allosteric inhibitors by high throughput screening” (PLoS ONE, 2019).
Hit rate of the full screen: of about 110,000 compounds, about 230 (0.21%) showed an effect of 50% or more. The list shows a part of the results.

biological target: DPAP1 (Plasmodium falciparum, UniProt Q8IIJ9); experiment: primary screen, percent inhibition; read by cleavage of a fluorogenic dipeptide substrate; higher = more effect of the substance; design: species or system P. falciparum D10 trophozoite lysates; single well
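Note: 30 min substrate incubation versus DMSO and 10 µM JCP410 controls.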

Sequence of DPAP1 (Q8IIJ9 whole entry, looked up): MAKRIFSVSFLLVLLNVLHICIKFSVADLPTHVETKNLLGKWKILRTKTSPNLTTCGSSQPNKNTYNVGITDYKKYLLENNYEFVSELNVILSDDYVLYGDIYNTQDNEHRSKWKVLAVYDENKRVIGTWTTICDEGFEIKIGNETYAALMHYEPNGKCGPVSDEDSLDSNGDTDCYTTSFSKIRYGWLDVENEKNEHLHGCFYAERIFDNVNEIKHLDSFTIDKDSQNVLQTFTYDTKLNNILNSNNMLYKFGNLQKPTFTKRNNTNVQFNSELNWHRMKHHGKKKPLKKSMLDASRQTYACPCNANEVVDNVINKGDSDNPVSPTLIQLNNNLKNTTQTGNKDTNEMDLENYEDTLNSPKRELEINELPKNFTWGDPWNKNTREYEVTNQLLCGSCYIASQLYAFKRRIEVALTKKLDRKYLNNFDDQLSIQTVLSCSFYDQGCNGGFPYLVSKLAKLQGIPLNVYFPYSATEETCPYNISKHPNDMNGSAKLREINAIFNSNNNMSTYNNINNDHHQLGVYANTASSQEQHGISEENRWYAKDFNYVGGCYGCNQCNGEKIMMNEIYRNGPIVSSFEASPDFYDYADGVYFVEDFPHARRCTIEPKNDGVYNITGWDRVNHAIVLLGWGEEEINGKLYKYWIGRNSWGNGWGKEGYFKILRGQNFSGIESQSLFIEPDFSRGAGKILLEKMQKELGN

| SMILES | % Inhibition @ 10 uM [%] |
| --- | --- |
| COc1cc(C2C3=C(CC(C)(C)CC3=O)OC3=C2C(=O)CC(C)(C)C3)c(Cl)cc1O | 13.4 |
| O=S(=O)(O)c1nc2ccncc2[nH]1 | 4.47 |
| COc1cc2c(cc1OC)CN(Cc1ccc(O)cc1)CC2 | 0.847 |
| O=S(=O)(CCc1ccncc1)c1ccccc1 | 1.9 |
| C=CC1CN2CCC1CC2[C@H](O)c1ccnc2ccc(O)cc12 (some centres unmarked) | -7.01 |
| COc1ccc(-c2noc(CCC(=O)NC(C)(C)C)n2)cc1OC | -1.35 |
| Cc1cc(C)c(C)c(OCC(=O)NCc2ccccn2)c1 | -2.98 |
| COc1ccccc1C(=O)N(Cc1sccc1C)C1CCS(=O)(=O)C1 (centres unmarked) | 3.77 |
| CC(=O)NCCNC(=O)c1ccc2ccccc2c1 | 5.01 |
| CCN1CCC(N(Cc2ccc(F)cc2)C(=O)NC23CC4CC(CC(C4)C2)C3)CC1 | 0.434 |
| CCC(=O)/N=C1\SC2CS(=O)(=O)CC2N1CCc1ccccc1 (centres unmarked) | -1.15 |
| O=C(c1ccccc1)N1CCCC(c2nc(O)c3nnn(Cc4ccc(Cl)cc4)c3n2)C1 (centres unmarked) | 2.73 |
| NC(=O)/C=C/C(=O)NCc1ccccc1 | -4.35 |
| Cc1c(C(=O)N(C)C)sc2c1c(=O)n(Cc1ccccc1)c(=O)n2Cc1ccc(F)cc1 | 1.91 |
| O=C(NCc1cccnc1)c1ccc2c(c1)C(=O)N(Cc1cccnc1)C2=O | -1.82 |
| COc1ccc(C(=N)NOC(=O)c2c(OC)cccc2OC)cc1 | -4.93 |
| Cc1ccc(C)c(Cn2c(C(C)O)nc3ccccc32)c1 (centres unmarked) | 2.92 |
| CC(NC(=O)Cn1ncn2c(cc3sccc32)c1=O)c1ccccc1 (centres unmarked) | 1.8 |
| COc1ccc(C2OC34CCCCC3C(C#N)(C#N)C2(C#N)C(=N)O4)cc1 (centres unmarked) | 0.503 |
| CC(=O)Nc1ccc(NC(=O)/C=C/c2cccc([N+](=O)[O-])c2)cc1 | -1.92 |
| CC1CCCC(C)N1CCCCn1c2ccccc2c2ccccc21 (centres unmarked) | 1.87 |
| CCOc1ccccc1C1C2=C(O)CC(C)(C)CC2=Nc2ncnn21 (centres unmarked) | -1.62 |
| CN(C)c1ccc(/C=C(\C#N)c2nc(-c3cc4c(ccc5ccccc54)oc3=O)cs2)cc1 | -10.1 |
| Cc1n[nH]c(C)c1CCCOc1ccccc1C(C)(C)C | -3.42 |
| Cc1cc(C)c(S(=O)(=O)NCC2CCC(C(=O)N3CCN(c4ccccn4)CC3)CC2)c(C)c1 (centres unmarked) | 2.35 |

| SMILES | % Inhibition @ 10 uM [%] |
| --- | --- |
| COc1ccc(OC)c(CCNC(=O)c2cc3oc4ccccc4c3n2C)c1 | 1.22 |
| SC1=NC2=C(CCC2)C(c2ccccc2)N1 (centres unmarked) | -4.75 |
| CN(C)C(=O)Nc1ccc(S(N)(=O)=O)cc1 | -2.12 |
| COCc1cc(O)n2nc(C(F)(F)F)nc2n1 | -4.78 |
| O=C(Nc1ccc2nccnc2c1)N1CCCCC1 | 0.51 |
| Clc1ccc(CNCCc2ccc3c(c2)OCO3)cc1 | 2.23 |
| CCCn1c(NCc2ccc(Cl)cc2)nc2ccccc21 | -0.828 |
| CC(C)C(NC(=O)c1ccc(C23CC4CC(CC(C4)C2)C3)cc1)C(=O)Nc1ccccn1 (centres unmarked) | 3.34 |
| CCOC(=O)c1c(C)c(C(=O)NCc2ccc3c(c2)OCO3)c(C)n1Cc1ccccc1 | 0.0579 |
| Cc1ccccc1CN(C)CCc1ccccn1 | 2.1 |
| Cc1ccccc1CNC(=O)Cn1cnc(S(=O)(=O)N2CCCC2)c1 | 0.0575 |
| Cc1ccc2oc3c(c(=O)c2c1)C(c1cccc(O)c1)N(c1ccccn1)C3=O (centres unmarked) | 8.3 |
| CN(CC(=O)N1CCC(C(N)=O)CC1)S(=O)(=O)c1ccc(F)cc1 | 4.44 |
| O=C(Cc1ccccc1)Nc1ccc(S(=O)(=O)Nc2cccc(Cl)c2Cl)cc1 | -4.35 |
| COc1ccc(/C=c2\oc3cccc4c(OC)ccc(c2=O)c34)cc1OC | -3.78 |
| Cc1cccc(OCC(=O)Nc2ccc(CN3CCOCC3)cc2)c1 | 0.189 |
| CC1=C(C(=O)Nc2cccc(C)n2)C(c2ccc(Cl)cc2Cl)C2=C(O)CC(C)(C)CC2=N1 (centres unmarked) | -4.48 |
| CCCN(CCC)C(=O)Cn1c(SCc2ccccc2F)nc2ccncc21 | -6.24 |
| COc1cc(C2=NOC(C(=O)Nc3cccnc3Cl)C2)cc(OC)c1OC (centres unmarked) | -2.16 |
| CC(O)c1cccc(NC(=O)c2nn3c(c2Cl)NC(c2cccs2)CC3C(F)(F)F)c1 (centres unmarked) | 1.02 |
| CC1=C(C(=O)Nc2ccc(Br)cn2)C(c2ccc(C)cc2)C2=C(O)CCCC2=N1 (centres unmarked) | -2.8 |
| N#Cc1c2n(c3c(=O)n(Cc4ccccc4Cl)cnc13)CCCC2 | -0.996 |
| COC(=O)c1c(NC(=O)c2cc(F)cc(F)c2)sc2c1CCC2 | 1.43 |
| COC(=O)C1=C(C)N(Cc2ccco2)C(=O)/C1=C\c1ccc2c(c1)OCO2 | 0.131 |
| CCC(Cc1ccccc1)NS(=O)(=O)c1cc(Br)cnc1N (centres unmarked) | 0.655 |
